According to PubChem BioAssay AID624418 (National Center for Advancing Translational Sciences (NCATS), 2012):
About 530 (0.13%) of roughly 410,000 compounds were called active. Inconclusive results, whose numbers are uncertain, are shown with a selection of clear calls. Calls come from the whole dose curve; as a rule, active = well fitted inhibition curve with a large enough effect; inconclusive = small, poorly fitted or top-dose-only effect, or another doubt; inactive = no such curve, though single readings can be large or run the other way. Where the call is inconclusive, the potency comes from a doubtful curve fit.

test: qHTS of GLP-1 Receptor Inverse Agonists: Cytotox Screen; settings: HEK293 cAMP-luciferase reporter cells, luminescence, 24 h; activity change, negative = inhibition: at 38.3 µM (top of the series) unless noted
Method in brief: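 A 23 nL compound transfer followed 12 hours of cell culture at 37 deg C; exposure then lasted 24 hr. Luciferase assay detection reagent was dispensed and plates read for luminescence after a 12 min room-temperature wait.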
% is set by controls: 0 for no effect and ±100 for the full control effect; potency is the fitted concentration of half-maximal effect.

| SMILES | Potency | activity change, negative = inhibition |
| --- | --- | --- |
| Cc1ccc(C(=O)NNC(=O)CCCN2C(=O)/C(=C/c3ccccc3Cl)SC2=S)cc1 | inconclusive: 12.6 µM [inhibitor, single point] |  |
| Fc1cccc(F)c1/C=N/NC(=S)Nc1cccnc1 | inconclusive: 5.01 µM [inhibitor, single point] |  |
| COc1ccc(C)cc1S(=O)(=O)NCCC1=CCCCC1 |  | inactive: -4.37% |
| Cn1nnc2c[n+](CC(=O)c3ccc(Cl)cc3)cc(Br)c21 | inconclusive: 3.55 µM [inhibitor, partial curve, poor fit] |  |
| CN(C)S(=O)(=O)c1cccc(C(=O)Nc2ccccc2[N+](=O)[O-])c1 | inconclusive: 2.51 µM [inhibitor, full curve] |  |
| CC(C)C1CC(CCNCc2ccc3c(c2)OCO3)(c2ccccc2)CCO1 (stereo not drawn) | inconclusive: 25.1 µM [inhibitor, single point] |  |
| COc1ccc(CCN2C(=O)c3ccccc3NC2c2cc(Cl)c(O)c(OC)c2)cc1 (stereo not drawn) | inconclusive: 3.55 µM [inhibitor, partial curve] |  |
| NC(=S)N=Nc1c(O)n(Cc2ccccc2)c2ccccc12 | inconclusive: 1 µM [inhibitor, full curve, poor fit] |  |
| CCOC(=O)c1c(/N=C/c2cccc([N+](=O)[O-])c2O)sc(C)c1C | inconclusive: 28.2 µM [inhibitor, single point] |  |
| O=C(Oc1ccc(Cl)c2cccnc12)c1cccnc1 | inconclusive: 2.82 µM [inhibitor, full curve, poor fit] |  |
| CCCCN(C)CCNC(=O)Cn1ncc2c3ccccc3n(CCC)c2c1=O | inconclusive: 10 µM [inhibitor, single point] |  |
| COc1cccc(N=Nc2c(=O)[nH]n3c(=O)cc(C)[nH]c23)c1 | inconclusive: 8.91 µM [inhibitor, partial curve, poor fit] |  |
| CCC(CO)Nc1nc(CN2CCCCC2)nc2scc(-c3ccccc3)c12 (stereo not drawn) | inconclusive: 20 µM [inhibitor, single point] |  |
| CCN1CCN(C(=O)Nc2ccc(OC)cc2OC)CC1 | inconclusive: 10 µM [inhibitor, single point] |  |
| COc1ccc(NC(=O)CCN2CCN(S(=O)(=O)c3ccc(C(C)C)cc3)CC2)cc1 | inconclusive: 0.501 µM [inhibitor, full curve, poor fit] |  |
| Nc1ncnc2c1c(-c1ccc(Oc3ccccc3)cc1)cn2C1CCCC1 | inconclusive: 20 µM [inhibitor, single point] |  |
| COc1ccccc1OCC(=O)N/N=C1/C=C(C)CC1 |  | inactive: 23.8% |
| CN(C)c1ccc(/C=N/NC(=O)c2ccccc2O)o1 |  | inactive: 0% |
